Experimental data reported in patent US5942489A, “HGH-RH(1-29)NH2 analogues having antagonistic activity” (The Administrators of the Tulane Educational Fund, priority 1996, dated 1999).
Not every detail of the peptide structures is certain; ends, links or a residue may be inferred. Some entries repeat one wording, which the source may state once for all of them. Where a SMILES comes first, the peptide text is derived from it. Bridges are numbered along the chain shown (N, C = ends). [ ]: non-standard residue; d: D form. The star is where a group is joined. Phe(4-Cl) = N[C@@H](Cc1ccc(Cl)cc1)C(=O)O; Cit = NC(=O)NCCC[C@H](N)C(=O)O; Agmatine = N=C(N)NCCCCN*; Isobutyryl = CC(C)C(=O)*; Nle = CCCC[C@H](N)C(=O)O; Orn = NCCC[C@H](N)C(=O)O; Abu = CC[C@H](N)C(=O)O; PhAc = O=C(Cc1ccccc1)*

Key:
[1] = tested on: GH release induced by 1 nM hGH-RH(1-29)NH2 in superfused rat pituitary cells; assay: Inhibition of hGH-RH(1-29)NH2-induced GH release in superfused rat pituitary system; format: cell-based; settings: for Inhibition of GH release (%) 0 min: 0 min response; for Inhibition of GH release (%) 30 min: 30 min response; for Inhibition of GH release (%) 60 min: 60 min response; for Inhibition of GH release (%) 90 min: 90 min response; for Inhibition of GH release (%) 120 min: 120 min response
Protocol: Superfused Rat Pituitary System. The analogues were tested in vitro in a test described earlier (S. Vigh and A. V. Schally, Peptides 5:241-[…], 1984) with modification (Z. Rekasi and A. V. Schally, P. N. A. S. 90:2146-2149, 1993).
Briefly, the cells are preincubated with peptides for 9 minutes (3 mL) at various concentrations. Immediately after the incubation, 1 nM hGH-RH(1-29)NH2 is administered for 3 minutes (1 mL) [0 minute response]. To check the duration of the antagonistic effect of the analogue, 1 nM hGH-RH(1-29)NH2 is applied 30, 60, 90, and 120 minutes later for 3 minutes [30, 60, 90, 120 min responses]. Net integral values of the GH responses are evaluated. GH responses are compared to and expressed as percent of the original GH response induced by 1 nM GH-RH(1-29)NH2. The effect of the new antagonists are compared to that of [Ac-Tyr^1,D-Arg^2 ]hGH-RH(1-29)NH2, the "Standard antagonist".
Growth Hormone Radio-immunoassay. Rat GH levels in aliquots of undiluted and diluted superfusion samples were measured by double-antibody radioimmunoassay using materials supplied by the National Hormone and Pituitary Program, Baltimore, Md. The results of RIA were analyzed with a computer program developed in our institute (V. Csernus and A. V. Schally, Harwood Academic (Greenstein, B. C. ed., London, pp. 71-109, 1991), hereby incorporated by reference. Inter-assay variation was less than 15% and intra-assay variation was less than 10%.

[2] = tested on: GH release stimulated by hGH-RH(1-29)NH2; assay: In vivo inhibition of hGH-RH(1-29)NH2-stimulated serum GH in anesthetized rats; parameters: species or system Sprague-Dawley rats
Protocol: In Vivo Tests. Adult male Sprague-Dawley rats are anesthetized with pentobarbital (6 mg/100 g b.w., i.p.). Blood samples are taken from the jugular vein 30 min after the injection of pentobarbital. One group of 7 animals receives hGH-RH(1-29)NH2 as control. […] Blood samples are taken from the jugular vein 5 and 15 min after the injection of antagonists. GH levels are measured by RIA. Potencies of the antagonists are calculated by the factorial analysis of Bliss and Marks with 95% confidence limits and are based on the doses of 100 and 400 μg/kg b.w. of the Standard antagonist and 20 and 80 μg/kg b.w. of the antagonists tested. Statistical significance was assessed by Duncan's new multiple range test.

[3] = 80 μg/kg i.v., 2 min prior to GH-RH(1-29)NH2 3 μg/kg

| Compound | Inhibition of GH release (%) 0 min ([1]; 30 nM peptide) [%] | Inhibition of GH release (%) 30 min ([1]; 30 nM peptide) [%] | Inhibition of GH release (%) 60 min ([1]; 30 nM peptide) [%] | Inhibition of GH release (%) 90 min ([1]; 30 nM peptide) [%] | Inhibition of GH release (%) 120 min ([1]; 30 nM peptide) [%] | Inhibition % [2, 3] [%] | Serum GH Levels [2, 3] [ng/mL] | inhibition of GH release stimulated by hGH-RH(1-29)NH2 compared with the standard antagonist ([2]; in vivo, rats) | Inhibition of GH release (%) 0 min ([1]; 3 nM peptide) [%] | Inhibition of GH release (%) 30 min ([1]; 3 nM peptide) [%] | Inhibition of GH release (%) 60 min ([1]; 3 nM peptide) [%] | Inhibition of GH release (%) 90 min ([1]; 3 nM peptide) [%] |
| --- | --- | --- | --- | --- | --- | --- | --- | --- | --- | --- | --- | --- |
| CCCC[C@H](NC(=O)[C@@H](NC(=O)[C@H](CC(=O)O)NC(=O)[C@H](CCC(N)=O)NC(=O)[C@H](CC(C)C)NC(=O)[C@H](CC(C)C)NC(=O)[C@H](CCCCN)NC(=O)[C@H](CCCNC(=N)N)NC(=O)[C@H](C)NC(=O)[C@H](CO)NC(=O)[C@H](CC(C)C)NC(=O)[C@H](CCC(N)=O)NC(=O)[C@H](C)NC(=O)[C@H](CC(C)C)NC(=O)[C@@H](NC(=O)[C@H](CCCCN)NC(=O)[C@H](CCCNC(=N)N)NC(=O)[C@H](Cc1ccc(O)cc1)NC(=O)[C@H](CO)NC(=O)[C@H](CC(N)=O)NC(=O)[C@@H](NC(=O)[C@H](Cc1ccc(Cl)cc1)NC(=O)[C@@H](NC(=O)[C@H](C)NC(=O)[C@H](CC(=O)O)NC(=O)[C@@H](CCCNC(=N)N)NC(=O)[C@H](Cc1ccc(O)cc1)NC(=O)Cc1ccccc1)[C@@H](C)CC)[C@@H](C)O)C(C)C)[C@@H](C)CC)C(=O)N[C@@H](CO)C(=O)N[C@@H](CCCNC(=N)N)C(N)=O [Peptide 9, [PhAc^0,D-Arg^2,Phe(pCl)^6,Ala^15,Nle^27]hGH-RH(1-29)-NH2] (PhAc-Y[dR]DAI[Phe(4-Cl)]TNSYRKVLAQLSARKLLQDI[Nle]SR-NH2) | 92.0 | 80.6 | 58.9 | 46.7 | 46.0 | 35 | 450.21 ± 68.38 | significant greater and longer-lasting inhibition |  |  |  |  |
| CCCC[C@H](NC(=O)[C@@H](NC(=O)[C@H](CC(=O)O)NC(=O)[C@H](CCC(N)=O)NC(=O)[C@H](CC(C)C)NC(=O)[C@H](CC(C)C)NC(=O)[C@H](CCCCN)NC(=O)[C@H](CCCNC(=N)N)NC(=O)[C@H](C)NC(=O)[C@H](CO)NC(=O)[C@H](CC(C)C)NC(=O)[C@H](CCC(N)=O)NC(=O)[C@H](CC)NC(=O)[C@H](CC(C)C)NC(=O)[C@@H](NC(=O)[C@H](CCCCN)NC(=O)[C@H](CCCNC(=N)N)NC(=O)[C@H](Cc1ccc(O)cc1)NC(=O)[C@H](CO)NC(=O)[C@H](CC)NC(=O)[C@@H](NC(=O)[C@H](Cc1ccc(Cl)cc1)NC(=O)[C@@H](NC(=O)[C@H](C)NC(=O)[C@H](CC(=O)O)NC(=O)[C@@H](CCCNC(=N)N)NC(=O)[C@H](Cc1ccc(O)cc1)NC(=O)Cc1ccccc1)[C@@H](C)CC)[C@@H](C)O)C(C)C)[C@@H](C)CC)C(=O)N[C@@H](CO)C(=O)N[C@@H](CCCNC(N)=O)C(N)=O [Peptide 3, [PhAc^0,D-Arg^2,Phe(pCl)^6,Abu^8,15,Nle^27,Cit^29]hGH-RH(1-29)-NH2] (PhAc-Y[dR]DAI[Phe(4-Cl)]T[Abu]SYRKVL[Abu]QLSARKLLQDI[Nle]S[Cit]-NH2) | 97.4 | 32.2 | 35.9 | 42.1 |  |  |  |  |  |  |  |  |
| CCCC[C@H](NC(=O)[C@@H](NC(=O)[C@@H]1CCC(=O)NCCCC[C@H](NC(=O)[C@H](CCCNC(=N)N)NC(=O)[C@H](C)NC(=O)[C@H](CO)NC(=O)[C@H](CC(C)C)NC(=O)[C@H](CCC(N)=O)NC(=O)[C@H](C)NC(=O)[C@H](CC(C)C)NC(=O)[C@@H](NC(=O)[C@H]2CCCCNC(=O)C[C@H](NC(=O)[C@@H](NC(=O)[C@H](Cc3ccc(Cl)cc3)NC(=O)[C@@H](NC(=O)[C@H](C)NC(=O)[C@H](CC(=O)O)NC(=O)[C@@H](CCCNC(=N)N)NC(=O)[C@H](Cc3ccc(O)cc3)NC(=O)Cc3ccccc3)[C@@H](C)CC)[C@@H](C)O)C(=O)N[C@@H](CO)C(=O)N[C@@H](Cc3ccc(O)cc3)C(=O)N[C@@H](CCCNC(=N)N)C(=O)N2)C(C)C)C(=O)N[C@@H](CC(C)C)C(=O)N[C@@H](CC(C)C)C(=O)N[C@@H](CCC(N)=O)C(=O)N1)[C@@H](C)CC)C(=O)N[C@@H](CO)C(=O)N[C@@H](CCCNC(=N)N)C(N)=O [Peptide 24, cyclo^8,12;21,25 [PhAc^0,D-Arg^2,Phe(pCl)^6,Asp^8,D-Lys^12,Ala^15,Glu^25,Nle^27]hGH-RH(1-29)NH2] (PhAc-Y[dR]DAI[Phe(4-Cl)]TDSYR[dK]VLAQLSARKLLQEI[Nle]SR-NH2; lactam 8-12, 21-25) | 46.0 | 6.0 | 26.0 | 31.0 |  |  |  |  |  |  |  |  |
| CCCC[C@H](NC(=O)[C@@H](NC(=O)[C@H](CC(=O)O)NC(=O)[C@H](CCC(N)=O)NC(=O)[C@H](CC(C)C)NC(=O)[C@H](CC(C)C)NC(=O)[C@H](CCCCN)NC(=O)[C@H](CCCNC(=N)N)NC(=O)[C@H](C)NC(=O)[C@H](CO)NC(=O)[C@H](CC(C)C)NC(=O)[C@H](CCC(N)=O)NC(=O)[C@H](CC)NC(=O)[C@H](CC(C)C)NC(=O)[C@@H](NC(=O)[C@H](CCCCN)NC(=O)[C@H](CCCNC(=N)N)NC(=O)[C@H](Cc1ccc(O)cc1)NC(=O)[C@H](CO)NC(=O)[C@H](CC)NC(=O)[C@@H](NC(=O)[C@H](Cc1ccc(Cl)cc1)NC(=O)[C@@H](NC(=O)[C@H](C)NC(=O)[C@H](CC(=O)O)NC(=O)[C@@H](CCCNC(=N)N)NC(=O)[C@H](Cc1ccc(O)cc1)NC(=O)C(C)C)[C@@H](C)CC)[C@@H](C)O)C(C)C)[C@@H](C)CC)C(=O)N[C@@H](CO)C(=O)N[C@@H](CCCNC(N)=O)C(N)=O [Peptide 2, [Ibu^0,D-Arg^2,Phe(pCl)^6,Abu^8,15,Nle^27,Cit^29]hGH-RH(1-29)-NH2] (Isobutyryl-Y[dR]DAI[Phe(4-Cl)]T[Abu]SYRKVL[Abu]QLSARKLLQDI[Nle]S[Cit]-NH2) | 94.7 | 53.0 | 24.4 | 41.8 |  |  |  |  | 27.4 | 16.2 | 48.4 | 30.2 |
| CCCC[C@H](NC(=O)[C@@H](NC(=O)[C@@H]1CCC(=O)NCCCC[C@H](NC(=O)[C@H](CCCNC(=N)N)NC(=O)[C@H](C)NC(=O)[C@H](CO)NC(=O)[C@H](CC(C)C)NC(=O)[C@H](CCC(N)=O)NC(=O)[C@H](CC)NC(=O)[C@H](CC(C)C)NC(=O)[C@@H](NC(=O)[C@@H]2CCCCNC(=O)CC[C@H](NC(=O)[C@@H](NC(=O)[C@H](Cc3ccc(Cl)cc3)NC(=O)[C@@H](NC(=O)[C@H](C)NC(=O)[C@H](CC(=O)O)NC(=O)[C@@H](CCCNC(=N)N)NC(=O)[C@H](Cc3ccc(O)cc3)NC(=O)Cc3ccccc3)[C@@H](C)CC)[C@@H](C)O)C(=O)N[C@@H](CO)C(=O)N[C@@H](Cc3ccc(O)cc3)C(=O)N[C@@H](CCCNC(=N)N)C(=O)N2)C(C)C)C(=O)N[C@@H](CC(C)C)C(=O)N[C@@H](CC(C)C)C(=O)N[C@@H](CCC(N)=O)C(=O)N1)[C@@H](C)CC)C(=O)N[C@@H](CO)C(=O)NCCCCNC(=N)N [Peptide 21, cyclo^8,12;21,25 [PhAc^0,D-Arg^2,Phe(pCl)^6,Glu^8,25,Abu^15,Nle^27]hGH-RH(1-28)Agm] (PhAc-Y[dR]DAI[Phe(4-Cl)]TESYRKVL[Abu]QLSARKLLQEI[Nle]S-Agmatine; lactam 8-12, 21-25) | 79.6 | 56.5 | 47.5 | 53.4 |  |  |  |  |  |  |  |  |
| CCCC[C@H](NC(=O)[C@@H](NC(=O)[C@H](CC(=O)O)NC(=O)[C@H](CCC(N)=O)NC(=O)[C@H](CC(C)C)NC(=O)[C@H](CC(C)C)NC(=O)[C@H](CCCN)NC(=O)[C@H](CCCNC(=N)N)NC(=O)[C@H](C)NC(=O)[C@H](CO)NC(=O)[C@H](CC(C)C)NC(=O)[C@H](CCC(N)=O)NC(=O)[C@H](CC)NC(=O)[C@H](CC(C)C)NC(=O)[C@@H](NC(=O)[C@H](CCCN)NC(=O)[C@H](CCCNC(=N)N)NC(=O)[C@H](Cc1ccc(O)cc1)NC(=O)[C@H](CO)NC(=O)[C@H](CC(N)=O)NC(=O)[C@@H](NC(=O)[C@H](Cc1ccc(Cl)cc1)NC(=O)[C@@H](NC(=O)[C@H](C)NC(=O)[C@H](CC(=O)O)NC(=O)[C@@H](CCCNC(=N)N)NC(=O)[C@H](Cc1ccc(O)cc1)NC(=O)C(C)C)[C@@H](C)CC)[C@@H](C)O)C(C)C)[C@@H](C)CC)C(=O)N[C@@H](CO)C(=O)NCCCCNC(=N)N [Peptide 16, [Ibu^0,D-Arg^2,Phe(pCl)^6,Orn^12,21,Abu^15,Nle^27]hGH-RH(1-28)Agm] (Isobutyryl-Y[dR]DAI[Phe(4-Cl)]TNSYR[Orn]VL[Abu]QLSAR[Orn]LLQDI[Nle]S-Agmatine) | 85.2 | 12.3 | 25.1 | 14.8 | 36.0 |  |  |  |  |  |  |  |
